Test results from PubChem BioAssay (NCI).
Several values for one entry are separate records, joined by “and”; a condition that tells them apart may be missing. Identical values can stand only once.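 Exposure lasted 48 hours, with cells grown in 96-well plates and compounds tested at five concentrations. GI50 marks 50% less growth. Definition used: TGI = concentration required for complete inhibition of growth.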

Tested on: NCI-H322M lung
Assay: NCI anticancer screen, dose series, 48 h

Structure (SMILES) | TGI | GI50
Cc1ccc(NC(=O)/C(=N\Nc2ccc([N+](=O)[O-])cc2[N+](=O)[O-])C2C(=O)NC(=O)NC2=O)cc1 | > 100 µM | –
O=[N+]([O-])c1cn[n+]([O-])c2ccccc12 | 27.8 µM | –
CCCCCCCCCc1cc(=O)c2ccc(O)cc2o1 | > 100 µM | –
COCCOCCOC1=C(Cl)C(=O)c2c(O)ccc(O)c2C1=O | 26.7 µM | –
OCCCCCCOc1ccc(-c2cc(-c3ccccn3)nc(-c3ccccn3)c2)cc1 | 1.24 µM | –
COC(=O)/N=[N+](\[O-])C(c1ccc(OC)cc1)C1CCCCC1 (centres undefined) | 11.2 µM | –
CC(=O)Nc1ccc2[nH]c(-c3cccc(F)c3)cc(=O)c2c1 | > 100 µM | –
CC1C[C@]2(C)C(=O)N(c3ccccc3)C(=N)[C@@H]2N(C)c2ccccc21 (some centres undefined) | > 100 µM | –
COc1ccc2nc3cc(Cl)ccc3c(NCCCN(CCCl)CCCl)c2c1 | 1.99 µM | –
CSc1nc2c(nc(N)n2C2OCC(O)C(O)C2O)c(=O)n1C (centres undefined) | > 100 µM | –
COc1ccc(C2S/C(=C\c3ccc(O)cc3)C(=O)N2NC(=O)Cc2ccccc2)cc1 (centres undefined) | > 100 µM | –
C[Si](C)(OCCS(=O)(=O)O)C1S(=O)(=O)OCCOS1(=O)=O | > 100 µM | –
Cc1cc2c3ccccc3n(C)c2c2c1C(=O)C=CC2=O | 53.8 µM | –
c1ccc(CSc2nc(N3CCOCC3)c3cn[nH]c3n2)cc1 | > 100 µM | –
S=c1[nH]c2ccc(Br)cc2c(=S)n1-c1ccccc1 | 53 µM | –
N#Cc1c(NC(=S)NC(=O)c2ccccc2)nc2c(c1-c1ccccc1)CCCC2 | > 100 µM | –
COc1ccc(O)c(C#N)c1C#N | > 100 µM | –
COc1cc2c(cc1OC)CC(N=[N+]=[N-])c1cc(OC)c(OC)cc1/C=C\2 (centres undefined) | > 100 µM | –
Cc1cccc(C(O)c2ccncc2)c1O (centres undefined) | > 100 µM | –
CC(=O)Nc1ccc2c(c1)oc(=O)c1cc(NC(C)=O)ccc12 | > 100 µM | 57.8 µM
CCOc1ccc(NCc2cc(OC)c(OC)c(OC)c2)cc1 | > 100 µM | –
COc1ccc2c3c(c(=O)n(C)c2c1OC)C=CC(C)(C)O3 | > 100 µM | –

Structure (SMILES) | TGI | GI50
CCN(CC)C(=S)SS(=O)(=O)c1ccc([N+](=O)[O-])cc1 | > 100 µM | –
COC(=O)C1C2C=CC(C2)N1[C@@H](C)c1ccccc1 (some centres undefined) | > 100 µM | –
CCOC(=O)C(NC(=O)Nc1ccc(Cl)c(Cl)c1)C(F)(F)F (centres undefined) | > 100 µM | –
O=C(CC(C(=O)c1ccoc1)c1ccco1)c1ccco1 (centres undefined) | > 100 µM | –
Cc1ccc(N=C2C(=O)C3=C(OC(C)(C)CC3)c3ccccc32)cc1 | 2.96 µM | –
O[C@@H]1C[C@@H]2N[C@@](O)(C[C@@H]2O)[C@H]1O | > 100 µM | –
CC(CNC(Cc1ccccc1)c1ccccc1)NC(Cc1ccccc1)c1ccccc1 (centres undefined) | 11.3 µM | 2.88 µM
O=C1CC[C@@H](S(=O)(=O)c2ccccc2)[C@@H](/C=C/c2ccccc2)O1 | > 100 µM | –
O=[N+]([O-])c1ccc2nc(/C=C(\O)c3ccc(F)cc3)c(/C=C(\O)c3ccc(F)cc3)nc2c1 | > 100 µM | –
C[C@@H]1COCCN1c1cc(C2(S(C)(=N)=O)CC2)nc(-c2ccnc3[nH]ccc23)n1 (some centres undefined) | 15.7 µM | 1.85 µM
CC1S(=O)(=O)OCCOS1(=O)=O | > 100 µM | –
CCCCCCCCCCCCCCCC(=O)OCC1OC(n2c(O)c(N=NC(N)=S)c3ccc([N+](=O)[O-])cc32)C(OC(C)=O)C1OC(C)=O (centres undefined) | > 100 µM | –
CC(C)C1CC(O)O[C@@H]([C@@H](C)[C@H]2CC(=O)[C@@H]3[C@@H]4[C@@H](O)[C@H](O)[C@H]5[C@@H](O)[C@H](O)CC[C@]5(C)[C@H]4CC[C@]23C)C1 (some centres undefined) | > 100 µM | –
N#C/C(=C\c1cccc(O)c1)C(N)=O | > 100 µM | –
CC(C)(C)c1ccc(S(=O)(=O)N[C@H]2CC[C@H]3[C@@H]4CCc5cc(OS(=O)(=O)O)ccc5[C@H]4CC[C@]23C)cc1 | 16.9 µM | 4.68 µM
CCC(C)C(=O)c1c(O)c(C/C=C(\C)CCC=C(C)C)c(O)c2c(C(O)CC)cc(=O)oc12 (centres undefined) | 11.6 µM | –
O=C(CSCC(=O)N/N=C\c1ccc(-c2ccccc2)cc1)N/N=C\c1ccc(-c2ccccc2)cc1 | 55.2 µM | –
CNC1=CC(=O)C2=C(C1=O)[C@H]1CC[C@]3(C)C(=O)CC[C@H]3[C@@H]1CC2 | 28.7 µM | –
CC(=O)Nc1ccc2c3c(cc(O)c2c1)N(C(=O)CCCCC(=O)Nc1ccc2c4c(cc(O)c2c1)N(C(=O)OC(C)(C)C)CC4CCl)CC3CCl (centres undefined) | 37.2 µM | –
COC(=O)c1csc(-c2nc(CCNC(=O)OC(C)(C)C)sc2Br)n1 | > 100 µM | –
O=[N+]([O-])c1cccnc1NCC1(CO)CC(Cc2ccccc2)C1 (centres undefined) | > 100 µM | –
CSC1=C(c2ccc(Cl)cc2)SC(N2CCCCC2)N1c1ccc([N+](=O)[O-])cc1 (centres undefined) | > 100 µM | –

Structure (SMILES) | TGI | GI50
CN(CCc1ccc(N)cc1)[C@H]1CCCC[C@H]1N1CCCC1 | > 100 µM | –
Nc1nc2c(c(=O)[nH]1)CN(c1ccc(S(N)(=O)=O)cc1)CN2 | > 100 µM | –
COC(=O)c1cc(C#Cc2cc(OC)ccc2OC)ccc1OC | > 100 µM | –
Brc1ccc2[nH]cc(-c3nc(-c4c[nH]c5ccccc45)cs3)c2c1 | 9.67 µM | –
Cc1ccc2c(n1)C(=O)c1ccccc1C2=O | 64.9 µM | –
COc1cc(/C=C/C(=O)c2sc(Nc3ccccc3)nc2C)ccc1O | > 100 µM | –
Cc1cccc(NC(=S)Nc2ccccc2Cl)n1 | > 100 µM | –
Cc1ccc(C(O)c2cnc(C)n2Cc2ccccc2)cc1 (centres undefined) | > 100 µM | –
COc1ccc(CCNC(=O)Cc2cc(OC)c(OC)cc2CO)cc1OC | > 100 µM | –
COc1cc([C@@H]2c3cc4c(cc3[C@@H](NC(=O)c3ccccc3)C3COC(=O)[C@@H]32)OCO4)cc(OC)c1O (some centres undefined) | > 100 µM | –
COc1ccc(NC(=O)c2cc(OC)c(OC)c(OC)c2)cc1 | 89.3 µM | –
CC(=O)OCC1=C(C)C(OC(=O)C(OC(C)=O)[C@@H](NC(=O)c2ccccc2)c2ccccc2)CCC1(C)C (some centres undefined) | > 100 µM | –
C=C1C(=O)OC2C1CC(O)/C(C)=C\CCC1(C)OC21 (centres undefined) | > 100 µM | –
COc1ccc2c3c1OC1c4[nH]c5ccccc5c4CC4(O)C(C2)N(C)CCC314 (centres undefined) | 78.2 µM | –
CC(=O)n1c2ccccc2c2nc3nc(Oc4ccc(C)cc4)c4ccccc4c3cc21 | > 100 µM | –
COc1cc2c(c(OC)c1OC)-c1ccc(SC)cc1[C@H](OC(=O)c1ccccc1)CC2 | > 100 µM | –
CCOC(=O)C(=O)Nc1c(C)cccc1C | > 100 µM | –
COc1cc(C2c3cc4c(cc3[C@@H](Nc3cccc(C(C)=O)c3)C3COC(=O)[C@H]23)OCO4)cc(OC)c1O (some centres undefined) | 57.4 µM | –
COC(=O)c1c(C)cccc1/C=C1\Cc2cc(C)cc(C)c2C1=O | > 100 µM | –
COC(=O)CNC(=O)[C@@H](OC)[C@@H]1Cc2cc3cc(OC4CC(OC5CC(O)C(O)C(C)O5)C(O)C(C)O4)c(C)c(O)c3c(O)c2C(=O)[C@H]1OC1CC(OC2CC(OC3CC(C)(O)C(O)C(C)O3)C(O)C(C)O2)C(O)C(C)O1 (some centres undefined) | > 50 µM | 0.196 µM
CN(C)CCOc1ccc2c(c1)C/C(=C/c1ncc([N+](=O)[O-])n1C)C2=O | 11.1 µM | –
CCOP(=O)(OCC)C(NC(c1ccccc1)c1ccccc1)c1cccc2ccccc12 (centres undefined) | 26.2 µM | 11.5 µM

Structure (SMILES) | TGI | GI50
COc1cc(Nc2nc(N[C@H]3CCCC[C@@H]3N)nc3cc[nH]c(=O)c23)cc(OC)c1 | 13.7 µM | 0.771 µM
CN(C)CCCN1CCc2c([nH]c3ccccc23)C1c1cccnc1 (centres undefined) | > 100 µM | –
CCCCn1cnc2c(SC)ncnc21 | > 100 µM | –
CC(C)CCn1c(=O)c2c(=O)[nH][nH]c2c2ccccc21 | > 100 µM | –
CC12Cc3cc4c(cc3C1(c1ccc([N+](=O)[O-])cc1)OCCO2)OCO4 (centres undefined) | > 100 µM | –
COCc1cc2c(cc1/C=C/[N+](=O)[O-])OCO2 | 29.3 µM | –
Nc1cc(N)c(N)cc1N | 22.1 µM | 9.39 µM
c1cnc2[nH]cc(-c3csc(-c4cn(CCCCN5CCOCC5)c5ccccc45)n3)c2c1 | 3.83 µM | 1.79 µM
COc1ccc(-c2cc(-c3cc(OC)c(OC)c(OC)c3)cc(-c3cc4ccccc4oc3=O)n2)cc1 | 41.7 µM | –
C=CC[C@H](C)CCC(=O)N1[C@H]2CC3CC[C@@]2(CS1(=O)=O)C3(C)C | > 100 µM | –
N#CC1(C#N)NC(c2ccsc2)C(C#N)(C#N)NC1c1ccsc1 (centres undefined) | > 100 µM | –
CC/C=C\C/C=C\C/C=C\CCCCCCCC(=O)OCC | > 100 µM | –
CN(C)Cc1cc(N=Nc2ccccc2)cc(CN(C)C)c1O | > 100 µM | –
CNC(=S)N/N=C/c1cccc(C)n1 | > 100 µM | –
S=C1N=C(Cl)C2(NN1)c1ccccc1-c1ccccc12 | > 10 µM | –
Cc1cc(C(C#N)c2ccc(Cl)cc2)c(Cl)cc1NC(=O)c1cc(I)cc(I)c1O (centres undefined) | 15 µM and 24.9 µM | 4.13 µM and 12.4 µM
CN(C)c1ccc(N=Nc2ccccn2)cc1 | > 100 µM | –
COc1nc2nccc-2c2occn12 | > 100 µM | –
NC(C(=O)[O-])C(=O)[O-].NC1CCCCC1N.[Pt+4] | > 100 µM | 5.57 µM
Oc1ccc(CCCCCCc2ccc(O)cc2)cc1 | 27.5 µM | 13.7 µM
Cn1c(-c2cccs2)cc(-c2cccs2)c1-c1ccsc1 | > 100 µM | –
CN(CCOc1ccc(C#N)cc1)CCOc1ccc(C#N)cc1 | > 100 µM | > 100 µM

Structure (SMILES) | TGI | GI50
Cn1ccnc1C(=O)/C=C/c1ccc(CC(=O)Nc2ccccc2)cc1 | 6.33 µM | 2.57 µM
COc1cc(CNc2ccc(C(C)C)cc2)cc(OC)c1OC | > 100 µM | –
Fc1ccc2[nH]c3c(NCCCN4CCOCC4)ncnc3c2c1 | > 100 µM | 77.9 µM
Cc1nnc2n1-c1ccccc1C(=S)N1CSCC21 (centres undefined) | > 100 µM | –
O=NNc1nc(-c2cccnc2)nc2ccccc12 | > 100 µM | –
COc1ccc(-c2cc(N3CCN(c4ccccc4)CC3)c(C#N)c(=O)o2)cc1 | > 100 µM | –
NCc1ccc(C(=O)O)cc1 | > 100 µM | –
CC[C@H]1OC([C@H](O)C/C=C\C#C[Si](C)(C)C)C/C=C\C[C@H]1O[Si](C)(C)C(C)(C)C (some centres undefined) | > 100 µM | –
Cc1cccc(C(C)C)c1NC(=O)C(=O)CC(=O)c1c(C)n([O-])c2ccccc2[n+]1=O | 95.7 µM | –
CCN(Cc1ccccc1OC)c1ccc(CO)c(Cl)c1 | 23.2 µM | 9.36 µM
Cc1ccc(S(N)(=O)=O)cc1 | > 1000 µM | –
Clc1nc(Cl)c2c(ncn2C/C=C\Cn2cnc3c(Cl)nc(Cl)nc32)n1 | 13.6 µM | 3.8 µM
CN(C)c1ccc2cc(-c3ccccc3F)c(N)nc2c1 | 19.5 µM | 5.1 µM
O=C(CSC(=S)N1CCOCC1)Nc1nc2c(s1)CCCC2 | > 100 µM | –
CC(=O)c1cc([N+](=O)[O-])ccc1OCC(=O)O | > 100 µM | –
CCCCCCCCCCCCCC(=O)CBr | 36.1 µM | –
CNC(=O)c1[nH]cnc1/N=N/N(C)N | > 100 µM | –
C=CC[C@H]1[C@H](O[Si](C)(C)C(C)(C)C)C=CC(=O)[C@@H]1CC(=O)N(Cc1ccccc1)Cc1ccccc1 | > 100 µM | –
